{"source": "the supplement of paper PMC11417369", "note": "The other results are listed elsewhere or left out."}
{"system": "PfSIP2 AP2 domain 1 (GST-tagged)", "experiment": "gcPBM binding intensity (ln(normalized median fluorescence intensity)); higher = stronger DNA binding", "in_short": "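An Agilent 4 × 180k array of primer-extended double-stranded 36-bp intergenic genomic probes, with negative controls, was incubated for 1 h with GST-tagged P. falciparum DNA-binding domains expressed in E. coli. Alexa488 anti-GST antibody detected bound protein, scanned at 488 nm. Binding intensity is the highest Masliner-normalised natural-log median intensity across replicate spots of either probe orientation.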"}
{"sequence": "TATTTATAATTATAATAATATATATATATATATATA [TGCATGCA_negctrl_site173]", "gcPBM binding intensity (ln)": 8.72}
{"sequence": "ATTGTGTTAATAAAATGTACATTTTCTCTACATTAA [XGTACX_site2766]", "gcPBM binding intensity (ln)": 7.04}
{"sequence": "ATTAAATAAAAAAACACACACATATATACCTATATA [CACACA_site5837]", "gcPBM binding intensity (ln)": 6.99}
{"sequence": "CAAAACATTTTATCTACACACATATATAAATAAATA [CACACA_site3220]", "gcPBM binding intensity (ln)": 6.92}
{"sequence": "AATAAAACATAATAATGTACTCAAAGGTTTAACTTG [XGTACX_site4711]", "gcPBM binding intensity (ln)": 6.82}
{"sequence": "AACGTGTGGAGAATTATAAATGAGTAAAAAATATAT [XGTACX_negctrl_site562]", "gcPBM binding intensity (ln)": 7.29}
{"sequence": "GGGGGGAGGGTGAATACACACGTAATAATCATAAAC [CACACA_site8502]", "gcPBM binding intensity (ln)": 9.43}
{"sequence": "ATATATGTGTATGTATGTACTTATATTTTTTTTTAT [XGTACX_site1733]", "gcPBM binding intensity (ln)": 7}
{"sequence": "GCAAATCAATTTTTTTTTAAAACTCATTTTTTCGTT [CACACA_negctrl_site1136]", "gcPBM binding intensity (ln)": 6.77}
{"sequence": "TCCGTTATATATGTGTGTACATATAATATATCCTCA [XGTACX_site2588]", "gcPBM binding intensity (ln)": 7.1}
{"sequence": "AAAAATGAAAGTAAGACATGCATGGAATTTTTTTTA [TGCATGCA_site347]", "gcPBM binding intensity (ln)": 6.68}
{"sequence": "TTTTTTTTTTATGAAAGTACATATGAAAAATACGAA [XGTACX_site3451]", "gcPBM binding intensity (ln)": 7.72}
{"sequence": "TACTATAACGCACATACACACAAAAAAAAAAAAAAA [CACACA_site8073]", "gcPBM binding intensity (ln)": 7.4}
{"sequence": "TATATATATATTTTTGCATGTAATTTTTATGAGGAC [TGCATGCA_site884]", "gcPBM binding intensity (ln)": 8.44}
{"sequence": "ATATGGTGATATAGGTGTACATTTTGATGCTTATTT [XGTACX_site4283]", "gcPBM binding intensity (ln)": 6.95}
{"sequence": "TTATACATGAAATATTGTACACATATATATATATAT [XGTACX_site4378]", "gcPBM binding intensity (ln)": 9.3}
{"sequence": "TTTTTTTTTTTCTTAGTGCGCGTGAAAAATATAAAA", "gcPBM binding intensity (ln)": 7.89}
{"sequence": "AATTAGATTATGCACACACACTTAAAAATAATAAAT [CACACA_site7015]", "gcPBM binding intensity (ln)": 8.15}
{"sequence": "TTACTCAAACAAACAAAAAAAAAAAAAAAAAAAAAA [TGCATGCA_negctrl_site457]", "gcPBM binding intensity (ln)": 6.94}
{"sequence": "ATATATAGAATGTGTACACACATATGTATTTATATA [CACACA_site810]", "gcPBM binding intensity (ln)": 7.34}
{"sequence": "ATTTTTTATGGACAAAAGACCTCTGATGTAAATATA [CACACA_negctrl_site1081]", "gcPBM binding intensity (ln)": 6.98}
{"sequence": "GATAAATGTATATATGCATGCACATATATTTATACA [TGCATGCA_site748]", "gcPBM binding intensity (ln)": 8.57}
{"sequence": "TATTTGTAATATTATACACACATTATATATTACAAA [CACACA_site5804]", "gcPBM binding intensity (ln)": 7.09}
{"sequence": "CGTAGCCACACTAACACACACAAATATACACAATCA [CACACA_site7379]", "gcPBM binding intensity (ln)": 7.01}
{"sequence": "ATTTAAATAACGTATGTATATACATATATATATATA [TGCATGCA_negctrl_site207]", "gcPBM binding intensity (ln)": 9.43}
{"sequence": "TATTTTGTATATAAATGTACAAGTATATATTTTTTC [XGTACX_site7855]", "gcPBM binding intensity (ln)": 6.74}
{"sequence": "TATGAATATTTGTATACATGCATATAGAAATCATAT [TGCATGCA_site533]", "gcPBM binding intensity (ln)": 7.04}
{"sequence": "ATATATTATATATATATATATATATATTATTATTGT [TGCATGCA_negctrl_site286]", "gcPBM binding intensity (ln)": 7.73}
{"sequence": "TGCATTATTTACAAGGTGCGTTACAAATGTGTAACA [GTGCAC_site9442]", "gcPBM binding intensity (ln)": 9.7}
{"sequence": "GCTTTAATCTGAAAGTGTACAGATAATATATTTATA [XGTACX_site2462]", "gcPBM binding intensity (ln)": 7.15}
{"sequence": "AGATACGATTATATGCGTTCAATATACCAAATAATT [TGCATGCA_negctrl_site501]", "gcPBM binding intensity (ln)": 6.87}
{"sequence": "CTTTGTGTTAAAAGTAGTACACCAAAAATATGACTT [XGTACX_site622]", "gcPBM binding intensity (ln)": 7.28}
{"sequence": "CACGCGCCCGGACACACACACACACCCATATATATA [CACACA_site5251]", "gcPBM binding intensity (ln)": 7.82}
{"sequence": "TTTTTCATCATATGTTGTACAATGTGTAGATATATT [XGTACX_site3195]", "gcPBM binding intensity (ln)": 7.25}
{"sequence": "ATTTATATATAATATACACACATATAATCCACATAT [CACACA_site699]", "gcPBM binding intensity (ln)": 7.1}
{"sequence": "AAGAGAAATTATAACATGTGAAATGTATTATATATA [TGCATGCA_negctrl_site254]", "gcPBM binding intensity (ln)": 6.99}
{"sequence": "TATCTCTTATTTTATTGTACTTAACTATGCTATAAT [XGTACX_site4904]", "gcPBM binding intensity (ln)": 6.92}
{"sequence": "AAAAATAAAAAAATGACACACATATATATATATATA [CACACA_site2307]", "gcPBM binding intensity (ln)": 9.63}
{"sequence": "TAAGTATAATATTGATGTACATATAATAACTTGTAT [XGTACX_site417]", "gcPBM binding intensity (ln)": 7.03}
{"sequence": "TAGTTAACAAATAATGCACACAAATGGATAAAATTA [CACACA_site9240]", "gcPBM binding intensity (ln)": 7.83}
{"sequence": "ATTCAAATTGTAGAAACACACAAAAACTTAACATAT [CACACA_site2617]", "gcPBM binding intensity (ln)": 6.99}
{"sequence": "CATATGATATGTTATACACACACGTATATATGAATT [CACACA_site3446]", "gcPBM binding intensity (ln)": 6.93}
{"sequence": "AAGGGAAAATTAAGGTTGCACTAAAAATATATCTTT [GTGCAC_site9608]", "gcPBM binding intensity (ln)": 7.85}
{"sequence": "ATGAACATACAATATACACACATATATATTTATATT [CACACA_site4609]", "gcPBM binding intensity (ln)": 7.12}
{"sequence": "AATTATATTCTATTCACACATATTCCAACCTCTTTT [CACACA_site4670]", "gcPBM binding intensity (ln)": 6.92}
{"sequence": "TTTGATGGTACACGTACACACCTTGCAAATATTTTT [CACACA_site4645]", "gcPBM binding intensity (ln)": 7.19}
{"sequence": "TGAAAGAACCTGATTACACACATAAATTATATATAT [CACACA_site26]", "gcPBM binding intensity (ln)": 7.3}
{"sequence": "ATGAATATAATAAAGAAACACACGTATACATAATGA [CACACA_site1355]", "gcPBM binding intensity (ln)": 6.9}
{"sequence": "TGTATGTTGTAAAATTGTACATATATATTATATTTA [XGTACX_site4883]", "gcPBM binding intensity (ln)": 7}
{"sequence": "AAAAGATAATTATGCACACACACACCCAGACACAAC [CACACA_site5428]", "gcPBM binding intensity (ln)": 7.85}
{"sequence": "AGTTCTTCGTACCAAAAAACGGCACGCATATGTATA [TGCATGCA_negctrl_site469]", "gcPBM binding intensity (ln)": 6.99}
{"sequence": "TGTATTCATACATGCACACGTACATATTTAAATATA [CACACA_site3926]", "gcPBM binding intensity (ln)": 7.32}
{"sequence": "TATTTCAAAAAAAAAAAAAATAAAAAACAACAACAA [CACACA_negctrl_site893]", "gcPBM binding intensity (ln)": 6.91}
{"sequence": "AAAAAAAATTATATATGTACTTATTAATCCTTATAT [XGTACX_site1389]", "gcPBM binding intensity (ln)": 6.86}
{"sequence": "ATTTATATATCGCCCACACACATGTGATTATTTATA [CACACA_site6905]", "gcPBM binding intensity (ln)": 7.15}
{"sequence": "TACTACTATCTATATTGTACAAAAGGTGCCTACAAA [XGTACX_site4267]", "gcPBM binding intensity (ln)": 7.65}
